Data reported in the supplement of paper PMC3334620.
Whole data set: some 33,000 sequences, median “E-score (-0.5 to 0.5)” near -0.021, cut for the highest 2% near 0.32. The list shows a part of the results.

What follows are sequences tested against T1, Zap1 (UniProt P47043) (assay: PBM E-score (8-mer binding enrichment) (E-score (-0.5 to 0.5)); higher = stronger / more preferred TF binding; most listed sequences are background and not binding sites). Conditions: protein concentration: 200 nM; construct: GST-full length.
T1 sequence: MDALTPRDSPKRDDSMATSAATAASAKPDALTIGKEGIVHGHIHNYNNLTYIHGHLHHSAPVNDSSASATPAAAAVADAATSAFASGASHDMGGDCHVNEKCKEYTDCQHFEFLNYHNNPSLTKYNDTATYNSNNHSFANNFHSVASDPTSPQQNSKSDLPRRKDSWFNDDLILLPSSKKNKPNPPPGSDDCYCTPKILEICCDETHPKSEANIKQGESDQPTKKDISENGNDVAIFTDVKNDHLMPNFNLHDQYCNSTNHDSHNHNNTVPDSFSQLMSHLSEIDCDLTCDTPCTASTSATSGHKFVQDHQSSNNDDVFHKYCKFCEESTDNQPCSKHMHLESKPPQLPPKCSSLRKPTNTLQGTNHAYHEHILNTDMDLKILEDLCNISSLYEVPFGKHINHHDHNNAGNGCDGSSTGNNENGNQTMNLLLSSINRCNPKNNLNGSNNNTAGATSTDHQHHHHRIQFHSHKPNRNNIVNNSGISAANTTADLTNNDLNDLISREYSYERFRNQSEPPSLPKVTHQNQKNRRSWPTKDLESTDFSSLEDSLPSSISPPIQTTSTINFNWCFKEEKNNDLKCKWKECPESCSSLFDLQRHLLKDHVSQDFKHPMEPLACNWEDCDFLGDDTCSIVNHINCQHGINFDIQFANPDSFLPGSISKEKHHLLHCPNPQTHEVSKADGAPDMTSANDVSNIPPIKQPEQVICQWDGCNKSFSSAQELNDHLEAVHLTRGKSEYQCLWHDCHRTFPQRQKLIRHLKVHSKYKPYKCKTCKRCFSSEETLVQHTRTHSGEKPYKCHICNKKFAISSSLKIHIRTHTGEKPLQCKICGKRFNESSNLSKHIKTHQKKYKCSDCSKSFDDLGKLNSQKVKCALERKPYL
Procedure: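 Universal 'all 10-mer' protein binding microarrays (Agilent AMADID 015681) probed with GST-tagged S. cerevisiae TFs (full-length or DBD) made by in vitro transcription/translation (PURExpress), about 100-200 nM. Bound TF was detected with fluorescent anti-GST. Each ungapped 8-mer (which stands for itself and its reverse complement) is scored by the PBM enrichment score (E-score), a modified Wilcoxon-Mann-Whitney statistic from -0.5 to +0.5, computed with the Universal PBM Analysis Suite. Scale: above 0.35 generally sequence-specific binding.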

Sequence | PBM E-score
AAGATAAT | 0.142
CCGCGGTC | 0.0304
GCGGTCAA | 0.116
CATATTTA | 0.122
GCCCTAGC | -0.148
TCACGTCA | 0.104
TTTGCAAA | 0.232
GTCTAGCA | -0.139
AGTGGGGC | -0.27
GAAGTGCA | -0.0999
TAAAGTGA | 0.175
ACGGTAAA | -0.0274
ACTCCAAG | -0.021
GAGTTGCC | -0.198
ACCCTTGA | 0.383
ACAATGCG | -0.0835
ACAGTGTA | 0.0586
CATCTCGC | -0.291
AGCTAGTC | -0.241
AGTTGCGA | 0.16
AACTGTCA | -0.00667
ACCTGCAG | 0.0978
CCCTCGAG | 0.159
AAGACGTC | -0.0621
CCTATGAG | 0.105

Sequence | PBM E-score
AGAGCGAC | -0.0982
AGATGACG | -0.236
AAAAACGC | 0.0461
GGTGCTCA | 0.069
AATCTAGA | 0.0363
CGGACCGC | -0.0697
AGAAGCAC | -0.185
ATCTAACG | -0.0741
AGTAGGAC | -0.22
TGCCACCA | -0.19
ACTGATAG | -0.0352
ACGTTAAG | -0.0481
ACCTAAGC | 0.0446
CGGATACC | 0.255
AGATCAGA | -0.0903
CGTTCTCC | -0.14
ACGTCCAC | -0.184
GAACCAAA | 0.186
AGCATAAA | 0.083
ACCGAAAT | 0.149
AGCCACCC | -0.108
AAAGGTAT | 0.293
AGCAGTCG | -0.132
GCTGCGCC | -0.345
CAACTAAG | -0.00117

Sequence | PBM E-score
AGCCCTTC | -0.134
TTACGTAA | 0.128
CAGCTGCA | -0.292
CAAGTCTC | -0.2
AGCCGACT | -0.213
ACAAACAG | 0.215
TCTGGGCA | -0.103
TGAAGACA | -0.00651
GATAAGAA | 0.178
CCCGGCCA | -0.0437
CGCGCCGA | -0.0722
CGAGCATC | -0.207
AGCCGTAC | -0.14
AGAACGAA | 0.0755
CGATAGTA | -0.123
CTACATGA | -0.102
CTGTTTGC | -0.00815
AGGCCACG | 0.148
TAGCGCGA | 0.18
CGATTGAA | -0.154
AGAAGGAA | -0.212
AGATAGCA | 0.0811
ACGTGTTA | -0.0246
AGCGTTAA | 0.054
CTAGGCGA | -0.131

Sequence | PBM E-score
GACTTTAC | -0.0251
ATTGTTCA | 0.0541
ACGGGAAC | 0.037
GAAGTGTC | -0.208
ACTGAGTG | -0.152
AGGTTTCA | 0.222
ACTAAGCA | -0.191
CCTGCTGC | 0.0023
ATCAGAGA | -0.123
CATTCTAA | 0.173
AATCACTC | -0.146
ACGCACCA | 0.0673
TACTATCA | 0.0831
ACCCGCGT | 0.103
GGGGCAGA | -0.272
CATATACC | -0.0793
GTTTCGCA | -0.193
ACTCTGTC | -0.169
ATACTTTC | 0.0164
GCCACGAA | -0.0613
GTCAGCAC | -0.128
CTTGATAA | 0.11
CGCTCGCA | 0.11
AAAACAGA | -0.00762
ACCCCCAT | 0.0539

Sequence | PBM E-score
ATATGTCC | -0.00136
CCGCACTA | 0.00052
CTTCCTAA | 0.0693
CCGAACCC | -0.0867
CGTGGGAG | -0.166
TAATCCAA | 0.11
CCCTCTCA | -0.23
ACTCGAAG | -0.152
CCCCAAAC | 0.0917
CCCGAGTA | -0.0893
AACGGACC | 0.00508
ACCGAGAG | 0.0813
GGGCGTGA | -0.0483
CCGAAGAG | -0.261
GCCGCTTA | -0.00919
GTCGACAA | -0.0455
TATACAAA | 0.196
AGCTGTCG | -0.213
CCAATGAG | -0.133
ACAAGTTC | -0.0552
AATTACGC | -0.0544
CTGACGGC | -0.263
ATCACAGA | 0.0662
AGGCAAAA | 0.119
AGCCAGAT | -0.125

Sequence | PBM E-score
GGAACTAA | 0.106
ACAGTATG | 0.0365
AGCGCCTC | -0.279
CACTTCCA | -0.0774
AGTCCACA | 0.0582
CGGGTTCA | 0.0209
CATATAAC | 0.221
ACCCCACT | 0.217
GGTCTTCA | 0.0243
CAAGCCGA | -0.0853
AAATGTAT | 0.082
CAGATGTA | -0.224
AACATTAT | -0.0194
AAGCACAG | -0.11
AACAGTCG | -0.121
AAAGCAAC | 0.0537
GGGGATAA | 0.148
ACTCCGGG | 0.166
CCCTTCGC | -0.0395
TCTAGCCA | 0.0396
GCCAAGTA | -0.136
CGCTACTA | -0.0303
AACACCCA | -0.0123
ACATTGCG | -0.0448
ATTCGTGA | 0.0081

Sequence | PBM E-score
GCGCTGTA | -0.043
GCACGAAA | -0.0815
GCAGCCGA | -0.153
ATAGAGAT | -0.0573
GAGTGCCA | -0.241
GACAATGA | 0.00712
ATCATATC | 0.0199
CAGGACAC | -0.0793
TATAATCA | 0.245
ATCAACGA | -0.00872
AACAACCG | 0.1
AAATATAT | 0.224
TGCTGACA | -0.139
CAAGAATC | -0.0146
CGCAAAAA | 0.134
AGGCTTCC | -0.229
CCCGTGAA | -0.0297
GAATCGCC | -0.224
TTGGTAAA | 0.166
AGGAGGCA | -0.123
CGGATGTA | -0.201
GTAGAAAA | 0.124
